Experimental data as given in PubChem BioAssay AID588855 (National Center for Advancing Translational Sciences (NCATS), 2011).
Hit rate of the full screen: of about 410,000 compounds, about 5,000 (1.2%) were called active. Inconclusive results, whose numbers are uncertain, are shown with a selection of clear calls. Calls come from the whole dose curve; as a rule, active = well fitted inhibition curve with a large enough effect; inconclusive = small, poorly fitted or top-dose-only effect; inactive = no such curve, though single readings can be large or run the other way. A potency beside an inconclusive call is a rough fit, not a confirmed value.

Assay: qHTS for Inhibitors of TGF-b; note: nearly all actives have a fitted effect of over 65% in size
Settings: HepG2 CAGA-GFP TGF-b/SMAD3 reporter, GFP fluorescence, 18 h, TGF-beta stimulated, 500 pg/mL final; series mostly up to 46.1 µM; activity, negative = inhibition: at the top concentration
How it was run: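 HEPG2 CAGA-GFP cells (1000/well, DMEM with 1% FBS) were pre-incubated 2 h at 37 degrees C, given compound by pin tool, then stimulated with TGF-beta at 500 pg/mL final for 18 h before per-cell GFP fluorescence imaging.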
% is set by controls: 0 for no effect and ±100 for the full control effect; potency is the fitted concentration of half-maximal effect; tags give direction and shape of the fitted curve.

Row | Structure (SMILES) | Potency | activity, negative = inhibition
1 | Cc1c(NS(=O)(=O)c2ccc3c(c2)OCCO3)cccc1-c1nc2cccnc2s1 | inconclusive: 35.5 µM [inhibitor, single point] | 
2 | O=C(NCc1ccccc1)C1Nc2ccc(OC(F)(F)F)cc2C2C=CCC12 (stereo not drawn) | inconclusive: 14.1 µM [inhibitor, partial curve, poor fit] | 
3 | COc1ccc(/C(O)=C2/C(=O)C(=O)N(CCCN3CCOCC3)C2c2ccc(C(C)C)cc2)cc1 (stereo not drawn) |  | inactive: -0.242%
4 | COc1ccc(CN2C(=O)N(c3ccc(OC)cc3)C(=O)C2CC(=O)Nc2ccccc2)cc1 (stereo not drawn) |  | inactive: -7.61%
5 | O=C(COc1ccccc1)Nc1nc2ccccc2[nH]1 |  | inactive: -11.2%
6 | COc1ccc(-c2nc(-c3cccs3)c(-c3cccs3)[nH]2)cc1O | inconclusive: 0.891 µM [inhibitor, full curve, poor fit] | 
7 | O=C(Cn1c(=O)n(Cc2ccc(F)cc2)c(=O)c2sc3ccccc3c21)Nc1ccc(F)cc1F | inconclusive: 0.891 µM [inhibitor, full curve, poor fit] | 
8 | Cc1cc(N2CCN(C)CC2)nc2ccc(NC(=S)NCCCN3CCN(C)CC3)cc12 |  | inactive: 27.3%
9 | O=S(=O)(Nc1nc2ccccc2nc1Cl)c1ccccc1 | inconclusive: 35.5 µM [inhibitor, single point] | 
10 | COC(=O)C1=C(C(=O)OC)[C@@H]2N(Cc3ccccc3)c3ccccc3[C@@]23C[C@@H](C(=O)OC)N(C(=O)CC(C)C)C3=N1 | inconclusive: 0.794 µM [inhibitor, full curve, poor fit] | 
11 | CN(Cc1ccc(-n2cccn2)cc1)C(=O)c1cnn2c1NC(c1ccco1)CC2C(F)(F)F (stereo not drawn) | inconclusive: 14.1 µM [inhibitor, single point] | 
12 | O=[N+]([O-])c1cc(/C=N/N/C(=N/c2ccccn2)c2ccccn2)ccc1O | inconclusive: 6.31 µM [inhibitor, partial curve, poor fit] | 
13 | CCCCCC1CC(CC(=O)O)C(=O)O1 (stereo not drawn) |  | inactive: 3.11%
14 | CCCNc1nc(Cl)nc(NCc2cccnc2)n1 |  | inactive: 9.7%
15 | CCOc1ccc(CCNc2nc3ccccc3n3cnnc23)cc1OCC |  | inactive: -0.651%
16 | Cc1ccc(N(CN2C(=O)C3CC=CCC3C2=O)C(=O)c2ccco2)cc1Cl (stereo not drawn) |  | inactive: 0.726%
17 | CC(=O)Nc1sc2c(c1-c1nc3ccccc3s1)CCN(C(C)C)C2 | inconclusive: 3.16 µM [inhibitor, single point] | 
18 | O=C(CCN1Cc2ccccc2C1)c1ccc2c(c1)OCCO2 | active: 12.6 µM | 
19 | C=CC[C@@H](CC(=O)N[C@H](CO)Cc1ccccc1)C(=O)NC[C@H](OC(=O)[C@@H](CC=C)Cc1ccc(F)cc1)c1ccccc1 | inconclusive: 22.4 µM [inhibitor, partial curve, poor fit] | 
20 | O=C(CCl)Nc1cccc(Oc2ccccc2)c1 | active: 8.91 µM | 
21 | Cc1ccc(NS(=O)(=O)c2c(C)nc3sc(C)c(C)n3c2=O)cc1F | inconclusive: 0.251 µM [inhibitor, full curve, poor fit] | 
22 | Cc1ccc(C)c(C(C)NC(=O)CC#N)c1 (stereo not drawn) |  | inactive: 4.88%
23 | Cc1cc(C(=O)CN2C(=O)c3cccc(N)c3C2=O)c(C)n1Cc1cccs1 |  | inactive: 4.22%

Row | Structure (SMILES) | Potency | activity, negative = inhibition
24 | CCN1CCc2c(sc(-n3cccc3)c2C(CCC(C)C)NC(=O)NCCC(=O)OC)C1 (stereo not drawn) | inconclusive: 35.5 µM [inhibitor, single point] | 
25 | S=c1[nH]nc(CCc2nc3ccccc3[nH]2)n1-c1cccc(Cl)c1 | inconclusive: 1.26 µM [inhibitor, partial curve] | 
26 | COc1ccc(-n2cc(-c3ccccc3)c3c(N4CCOCC4)ncnc32)cc1 | inconclusive: 35.5 µM [inhibitor, single point] | 
27 | Cc1cccc(C)c1OCC(O)CN(Cc1ccccc1O)C1CCCCC1 (stereo not drawn) | inconclusive: 17.8 µM [inhibitor, single point] | 
28 | CCc1cccc(C)c1NC(=O)C(NS(=O)(=O)c1ccc2c(c1)CCC(=O)N2)c1ccccc1 (stereo not drawn) | inconclusive: 25.1 µM [inhibitor, single point] | 
29 | COc1ccc(C(=O)NCc2ccc(Cl)cc2)cc1S(=O)(=O)N1CCCC1 | inconclusive: 35.5 µM [inhibitor, single point] | 
30 | Cn1c(NCCc2ccncc2)nc2cc(-c3ccsc3)sc2c1=O | inconclusive: 35.5 µM [inhibitor, single point] | 
31 | CC(C)(C)n1ncc2c(=O)n(Cc3cccc(Oc4ccccc4)c3)cnc21 |  | inactive: -17.7%
32 | CCOc1cc(/C=C2\C(=O)N(c3nc(-c4ccc(Br)cc4)cs3)N=C2c2ccccc2)ccc1O | inconclusive: 22.4 µM [inhibitor, single point] | 
33 | CCOc1ccc(NS(=O)(=O)c2cnc(Cl)c(Cl)c2)cc1 | inconclusive: 35.5 µM [inhibitor, partial curve, poor fit] | 
34 | Cc1cccc(N2CCN(CC(O)COCc3cccs3)CC2)c1C (stereo not drawn) |  | inactive: 15.7%
35 | CCN(CC)S(=O)(=O)c1cc(NC(=S)NC(=O)C2CCCC2)ccc1C | inconclusive: 8.91 µM [inhibitor, partial curve, poor fit] | 
36 | COc1ccc(C(=O)NCCC2=CCCCC2)cc1S(=O)(=O)N1CCOCC1 | inconclusive: 1.58 µM [inhibitor, partial curve] | 
37 | CCOc1ccc(S(=O)(=O)NCc2cccn2Cc2cccc(C)c2)cc1 | inconclusive: 35.5 µM [inhibitor, partial curve, poor fit] | 
38 | CC(C)COc1ccc(C(=O)N(Cc2cccc(F)c2)C2CCS(=O)(=O)C2)cc1 (stereo not drawn) |  | inactive: -3.48%
39 | CCOC(=O)c1cnc2ccc(OCC)cc2c1NCCc1ccc(OC)c(OC)c1 | active: 12.6 µM | 
40 | CC(C)OC(=O)c1ccc(NC(=O)CSc2nc(-c3cccs3)cc(C(F)(F)F)n2)cc1 | inconclusive: 14.1 µM [inhibitor, single point] | 
41 | COc1ccc(NC(=O)CSc2nnc(C3CCCCC3)n2N)cc1 | inconclusive: 5.62 µM [inhibitor, single point] | 
42 | CCOC(=O)C1=C(CSc2nc3c(cc2C#N)CN(C)CC3)OC(N)=C(C#N)C1c1ccncc1 (stereo not drawn) | inconclusive: 7.94 µM [inhibitor, partial curve, poor fit] | 
43 | CCCCn1c(N)c(N(CCC(C)C)C(=O)c2sc3nc4n(c(=O)c3c2C)CCC4)c(=O)[nH]c1=O |  | inactive: -1.73%
44 | Cc1ccc2c(c1)c(=O)c1ccccc1n2CCCC(=O)Nc1ccc(C)c(C)c1 | inconclusive: 8.91 µM [inhibitor, partial curve, poor fit] | 
45 | CCCCn1c(-c2ccc(F)c(F)c2)nc2cc3[nH]c(=O)c(C(C)C)nc3cc21 | inconclusive: 6.31 µM [inhibitor, single point] | 
46 | COc1ccc(-c2nnc(Nc3ccc(OC)c(C(=O)N4CCCCC4)c3)c3ccccc23)cc1 | inconclusive: 15.8 µM [inhibitor, single point] | 

Row | Structure (SMILES) | Potency | activity, negative = inhibition
47 | O=C(c1cc(N2C(=O)C3C4CCC(C4)C3C2=O)ccc1Cl)N1CCCCCC1 (stereo not drawn) |  | inactive: 14.6%
48 | O=C(NCCCN1CCN(CCCNC(=O)c2cccc([N+](=O)[O-])c2)CC1)c1cccc([N+](=O)[O-])c1 |  | inactive: 8.22%
49 | O=C(NCc1ccco1)C(Cc1ccccc1)N1C(=O)C2C3C=CC(C3)C2C1=O (stereo not drawn) | inconclusive: 2 µM [inhibitor, partial curve, poor fit] | 
50 | COc1ccc(C(C)=O)cc1CSc1nc(NCc2ccccc2)c2ccccc2n1 | inconclusive: 2.24 µM [inhibitor, partial curve, poor fit] | 
51 | CC(/C=N/Nc1nc2ccccc2[nH]1)=C\c1ccccc1 | inconclusive: 35.5 µM [inhibitor, single point] | 
52 | Cc1ccc2c(c1)-c1c(cnc3cc(-c4ccc(Cl)cc4)nn13)CO2 |  | inactive: 0%
53 | Cc1ccc2onc(CNC(=O)N3CCN(c4cc(Cl)ccc4C)CC3)c2c1 | inconclusive: 35.5 µM [inhibitor, partial curve, poor fit] | 
54 | CC1CCN(C(=O)Nc2ccc3nc(-c4ccco4)c(-c4ccco4)nc3c2)CC1 | inconclusive: 5.62 µM [inhibitor, single point] | 
55 | CC(CNC(=O)c1cc2cc(S(=O)(=O)N3CCCCC3)ccc2n1C)c1ccccc1 (stereo not drawn) | inconclusive: 1.12 µM [inhibitor, partial curve, poor fit] | 
56 | O=C(OCC(=O)N1CCCC1=O)c1nc(Cl)c(Cl)c(Cl)c1Cl |  | inactive: -1.84%
57 | Cc1ccc(CCNC(=O)c2sc3nc4n(c(=O)c3c2C)CCCC4)cc1 |  | inactive: -2.45%
58 | COc1ccccc1CNC(=O)c1ccc2c(c1)nc(C)n2-c1cccc(C)c1 |  | inactive: 0%
59 | COc1cc(C(=O)NC2CCCCC2)ccc1OC1CCN(C(C)=O)CC1 |  | inactive: -0.445%
60 | Cn1c(N2CCOCC2)nc2c1c(=O)n(Cc1ccc(Cl)c(Cl)c1)c(=O)n2C | inconclusive: 4.47 µM [inhibitor, single point] | 
61 | CCn1c(=O)n(CC)c2cc(NC(=O)c3ccccc3Cl)ccc21 |  | inactive: 1.57%
62 | C[C@H](NC(=O)c1[nH]cnc1C(=O)Nc1ccccc1F)c1ccccc1 |  | inactive: -20.1%
63 | COc1ccc(-c2cc(C(=O)Nc3c(C)nn(Cc4ccccc4C)c3C)no2)cc1 |  | inactive: 4.46%
64 | CCN(CC)C(=O)COc1ccc(Br)cc1Cl | inconclusive: 10 µM [inhibitor, partial curve, poor fit] | 
65 | CCc1ccc(C(=O)c2cn(CC(=O)Nc3ccc(F)cc3)c3ccc(F)cc3c2=O)cc1 | inconclusive: 10 µM [inhibitor, partial curve, poor fit] | 
66 | OCC[C@@H]1NCc2cc(CO)cc(-c3ccccc3)c21 |  | inactive: -8.93%
67 | O=C(Nc1ccc2c(c1)OCCO2)c1cc2sccc2n1Cc1ccccc1 |  | inactive: 1.56%
68 | COc1cc(NC(=O)c2ccc(N3CC4CC(C3)c3cccc(=O)n3C4)c(NC(=O)c3ccncc3)c2)cc(OC)c1OC (stereo not drawn) |  | inactive: 13.2%
